# Laboratory results: ChEMBL document CHEMBL4888484, “Replenishing the malaria drug discovery pipeline: Screening and hit evaluation of the MMV Hit Generation Library 1 (HGL1) against asexual blood stage Plasmodium falciparum ,using a nano luciferase reporter read-out” (2022)
# Where “and” joins values, the source holds several entries; their conditions need not be identical. Equal values may be shown once. Among all 150,000 compounds or so, about 540 (0.36%) showed an effect of 50% or more. This is one part of the list.
# Tested on: Plasmodium falciparum
# Assay: Primary screen in NF54 nanoGlo assay, in single point, at 2uM, 72h; a lower Z score goes with more inhibition
# Assay type: functional, Erythrocyte
# Conditions: timepoint 72 hour
Compound,% Inhibition [%],Z score,% Inhibition (2 µM),Z score (2 µM)
O=C(c1cc2ccccc2o1)[C@@H]1[C@@H]2CCCN2[C@]2(C(=O)Nc3ccc(Cl)cc32)[C@@]12C(=O)Nc1ccccc12,1,-0.17,–,–
N#Cc1c(C2CCNCC2)cc(-c2ccc(F)cc2C(F)(F)F)nc1N,8,-1.58,–,–
O=C1CC2CCC(C1)N2C(=O)CCn1nnc2ccccc2c1=O,28,-3.19,–,–
Cc1nc([C@H]2C[C@H](NC(=O)c3cnc(N)nc3C(F)(F)F)C2)cc(=O)[nH]1,-4,0.73,–,–
CC[C@@H](Cc1ccccc1Br)N(C)C(=O)CNC(N)=O,-7,0.93,–,–
CCOC(=O)Nc1nc2c(s1)CN(C(=O)[C@@H]1CC=CCC1)CC2,-6,1.2,–,–
O=C(NCc1ccc(F)cc1)c1nc2n(n1)-c1ccccc1S(=O)(=O)N2,-6,1.06,–,–
CCCCS(=O)(=O)N1C[C@H]2CCC(=O)c3cccc1c32,-9,1.63,–,–
COc1ccc(CCC(=O)N2CCC[C@H](COCc3ccccc3)C2)cc1,-7,1.33,–,–
O=C(NC(COc1ccccc1F)c1ccccc1)C1CCNC1 (stereo not drawn),4,-0.75,–,–
CC1(C)C[C@@H](C(=O)N2CCn3c(C(N)=O)cnc3C2)CCO1,-20,1.88,–,–
O=C(CN1CCc2[nH]nc(-c3cccc4ccccc34)c2C1)N1CCCCC1,6,-0.74,–,–
COc1ccc(C(C)NC2CCS(=O)(=O)C2)cc1Cn1cccn1 (stereo not drawn),-2,0.31,–,–
O=C(c1nn(Cc2ccccc2)c(=O)c2ccccc12)N1CCOCC1,-12,1.2,–,–
CCn1cc(CN2CCCC23CCN(c2ccc(C(F)(F)F)cn2)CC3)cc1C#N,-17,2.22,–,–
CCc1noc2nc(C)nc(NC3CCCCCC3)c12,4,-0.41,–,–
CC[C@H]1COCCN1C(=O)Nc1cccc(N(C)CC)c1,4,-0.58,–,–
COc1ccc(N2CCN(C(=O)Cc3ccc(S(=O)(=O)N4CCOCC4)s3)CC2)cc1,2,-0.2,–,–
CN(CCc1noc(C2CC2)n1)C(=O)Nc1cccc2[nH]ncc12,7,-0.97,–,–
COc1cncc(O[C@H]2CCCN(C(=O)Cn3ncccc3=O)C2)n1,-14,2.34,–,–
CCNC(=O)N(CCOC)Cc1csc(COc2cccc3ccccc23)n1,-3,0.48,–,–

Compound,% Inhibition [%],Z score,% Inhibition (2 µM),Z score (2 µM)
Cc1nc2c([nH]1)CN(Cc1cc(CC(C)C)on1)CC2,-5,0.65,–,–
Cn1nc(C(=O)N2CCN(S(=O)(=O)c3ccccc3)CC2)ccc1=O,6,-1.09,–,–
Cn1nccc1CS(=O)(=O)c1ccc(F)c(F)c1,36,-5.18,–,–
CC(C)NC(=O)CCN(c1nc(-c2cccc(Br)c2)nc2ccccc12)C1CC1,-15,2.09,–,–
COc1ccc([C@H]2C[C@@H](C(F)(F)F)n3ncc(C(=O)NCCc4ccccc4)c3N2)cc1,-12,1.9,–,–
COc1ccccc1N(C)CCC(=O)NC(N)=O,-1,0.15,–,–
CO[C@H]1CCN(C(=O)c2cnn3ccc(N)cc23)C1,-5,0.65,–,–
COc1ccc2c(c1)CCC[C@@]2(O)CNS(=O)(=O)CCC(F)(F)F,14,-1.84,–,–
O[C@]1(c2ccccc2)C[n+]2ccccc2N1Cc1ccccc1,–,–,-12% and -7%,2.06 and 1.3
CCc1c(C(=O)N(C)Cc2cc(C#N)cs2)cnn1CCC(C)C,-12,1.32,–,–
COc1nc2c(cc1CNC(=O)[C@@H]1CN(C)C(=O)N1)C(=O)N(C1CCCC1)C2,-4,0.74,–,–
COc1c(F)cc(CN2CC[C@H](CNC(=O)C(F)F)C2)cc1F,0,0,–,–
CCCN(C)C(=O)Cc1cn(C)c2ncccc12,-6,0.68,–,–
CN1C(=O)[C@@H](c2ccccc2)CC12CCN(Cc1cccc3nonc13)CC2,-6,0.93,–,–
COc1cccc(CNC(=O)CN(C)CCOc2ccc(O)cc2)c1,-10,1.09,–,–
O=C(c1c(F)cccc1F)N1CCN(c2cc(-n3cccn3)ncn2)CC1,0,0.03,–,–
Cn1nc(C(=O)NC2CC3CC2C2CCCC32)ccc1=O (stereo not drawn),-12,1.14,–,–
Cc1ccc(C(=O)N[C@@H](CC(C)C)c2nnc3n2CCNCC3)c(F)c1,-1,0.19,–,–
CC[C@@H](CNC(=O)Nc1ccc(N2CCOCC2)nc1)N1CCCC1,-4,0.67,–,–
CCOc1c(Br)cc(Br)cc1CNCCNCCO,0,-0.02,–,–
FC(F)(F)CN1CCC(NCC2CCOC2c2ccccc2)C1 (stereo not drawn),-11,1.53,–,–

Compound,% Inhibition [%],Z score,% Inhibition (2 µM),Z score (2 µM)
O=C(Nc1nc(-c2ccc3c(c2)OCO3)cs1)[C@@H]1COc2ccccc2O1,-6,1.01,–,–
O=C(C[C@H]1CCOC2(CCN(C(=O)NC3CCCCC3)CC2)C1)N1CCOCC1,-4,0.51,–,–
OCCOc1cncc(-c2ccc3c(c2)CCN3)c1,-7,0.8,–,–
CCCCCNC(=O)c1cnn(C)c1N,-4,0.48,–,–
CC(C)(NC(=O)CC1CCC(F)(F)CC1)c1nc2ccccc2s1,37,-5.05,–,–
Cc1ccc(-n2nc(C)c(S(=O)(=O)c3ccccc3)c2OC(=O)CCc2ccccc2)c(C)c1,3,-0.48,–,–
COc1ccc(N(Cc2c(C)noc2C)Cc2c(C)noc2C)cc1,-5,0.44,–,–
Cc1nn(C)cc1CNC(=O)c1cc(NC(=O)CC2CCCC2)cc2nc([C@@H]3CCCO3)n(C)c12,9,-1.24,–,–
Cc1cc(Cl)ccc1NC(=O)N1CC[C@H](c2nnc3n2CCN(C)CC3)C1,27,-3.65,–,–
O=C(Cn1nc2c(N3CCCCCC3)nccn2c1=O)Nc1ccc2c(c1)OCCO2,-15,1.48,–,–
Cc1ccc(Cl)cc1NC(=O)Cc1c(C)nc2nc(C3CCCCC3)nn2c1C,-6,0.7,–,–
Cc1cccc2[nH]c(-c3cn(C)nc3-c3ccc4c(c3)OCCO4)nc12,-2,0.44,–,–
Cc1ccc(C)c(NC(=O)CC(=O)N2CCc3[nH]nc(C(C)C)c3C2)c1,-8,1.42,–,–
Cc1nc(NCc2cccc(-c3cccnc3)c2)n(C)n1,-8,0.81,–,–
c1cn(C2CN(c3ccnc(C4CC4)n3)C2)nn1,-2,0.44,–,–
CN1CC[C@H](N(C)C(=O)Nc2ccc(C(F)(F)F)cc2)C1=O,-2,0.28,–,–
c1ccc(OC2CCN(c3cc(NCC4CC4)ncn3)CC2)cc1,-11,0.9,–,–
O=C(Nc1ccc2oc(-c3cc(F)ccc3Br)nc2c1)c1cc[n+]([O-])cc1,-3,0.74,–,–
C[C@H](NC(=O)Nc1ccc(F)cc1)C(C)(C)C,-12,1.77,–,–
COc1cc(Cl)ccc1-c1nc(-c2ccc3c(c2)ncn3CCC(=O)N2CCCC2)no1,-24,3.15,–,–
CN(C)c1ccc(C(=O)N2CCc3ccc(Br)cc32)nn1,-20,1.81,–,–

Compound,% Inhibition [%],Z score,% Inhibition (2 µM),Z score (2 µM)
Cc1c(C(=O)N2CCC3(CCOCC3)C2)cnn1C(C)C,-2,0.27,–,–
CC(C)(C)OC(=O)N[C@@H]1CCCN(Cc2nc(-c3ccco3)no2)C1,-11,1.1,–,–
Fc1ccccc1COc1ccc(Cl)cc1CNC1CCCCCCC1,-2,0.26,–,–
O=C(CC1CCC1)NCC(=O)c1ccco1,-7,0.95,–,–
O=C(Nc1ccccc1)N1CCN2C(=O)c3ccccc3[C@]12c1ccccc1,3,-0.44,–,–
CN(C)c1noc(CN2CCOCc3ccccc32)n1,-28,3.27,–,–
Cn1ncnc1Cn1c(COc2ccccc2)nc2ccccc21,-3,0.55,–,–
CC(=O)N1CCN(C(=O)c2csc(NC(=O)c3ccccc3F)n2)CC1,-4,0.49,–,–
COc1ccc(-c2nc3nc(C)c(CC(=O)Nc4ccc(Br)cc4)c(C)n3n2)cc1,-19,1.82,–,–
O=C(Nc1ccccc1)N1CCCN(C2CCC2)CC1,-8,1.32,–,–
Cc1nc(NCc2cnc(-c3ccccc3)s2)sc1-c1ccn(Cc2ccsc2)n1,9,-1.21,–,–
C[C@@H]1CN(Cc2cn(C)nc2-c2ccccc2Cl)CC(C(N)=O)O1 (stereo partly drawn),-6,1.1,–,–
O=S(=O)(c1cccc2nonc12)N1CCCC1,-2,0.38,–,–
Cc1nc2ccccn2c1CNC(=O)[C@H]1CCO[C@@H]1c1ccccc1,-4,0.56,–,–
Cc1n[nH]c(C)c1[C@H](C)N(C)C(=O)CC1CCN(C(C)C)CC1,-5,0.99,–,–
Cc1ccn2c(C(=O)N[C@H]3C[C@@H]4CC[C@H]3C4)nnc2n1,-22,1.91,–,–
CC1(CNC(=O)c2cccs2)CCOCC1,1,-0.14,–,–
Cc1cc(C(F)(F)F)cc(N2CCO[C@@H](CN)C2)n1,-10,1.74,–,–
Cc1ccc2oc(N3CCC[C@@H]3CN3CCCC3)nc2c1,-12,1.65,–,–
CC(C)n1ccnc1CN1CCOc2cc(N(C)C)ccc21,-7,0.93,–,–
COc1ccnc(N(Cc2ccccc2)CC2(O)CCCC2)n1,-1,0.17,–,–
